The supplement of paper PMC12067093, “Discovery and optimisation of a covalent ligand for TRIM25 and its application to targeted protein ubiquitination” (Chemical Science, 2025)
About 21,000 targets were measured; listed, in parts, are those with the largest changes and a random draw of the rest.

Compound: Cc1cc(ccc1-c1ccccc1)C(=O)N1CCCN(CC1)C(=O)CCl [compound 10]
Assay: probe-labelled cysteine peptide fold change vs DMSO (competition) (log2 fold change); higher = less target engagement (more negative = stronger competition)
Details: THP-1, incubation time: 4 h
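Note: competitive profiling in live THP-1 cells: cysteine peptides tagged with an iodoacetamide desthiobiotin (IA-DTB) probe, intensity after compound treatment relative to DMSO-treated cells.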

Row | Target | probe-labelled cysteine peptide fold change (10 µM) | probe-labelled cysteine peptide fold change (50 µM)
1 | EHHADH_Q08426_559+566_YCPIPDVLCELGR (UniProt Q08426) | -0.345 | 0.0389
2 | FANCF_Q9NPI8_89_GPVPGLANFQALGHCDVLLSLR (UniProt Q9NPI8) | 0.0316 | -0.03
3 | DYNC1H1_Q14204_2454+2466_CLGSLFSMLHQACR (UniProt Q14204) | 0.117 | 0.0497
4 | FAM111A_Q96PZ2_181_ASTECVK (UniProt Q96PZ2) | -0.208 | 0.147
5 | DOK2_O60496_36_FGASLYGGSDCALAR (UniProt O60496) | 0.0709 | -0.165
6 | EEF1A1_P68104_411_FLKSGDAAIVDMVPGKPMCVESFSDYPPLGR (UniProt P68104) | 0.219 | 1.06
7 | EIF3D_O15371_375_CEHDGVMTGANGEVSFINIK (UniProt O15371) | 0.0105 | -0.0373
8 | DOP1A_Q5JWR5_2127_EAFDLFMDPSFFQMDASCVNHWR (UniProt Q5JWR5) | -0.115 | -0.0466
9 | ECM1_Q16610_269_FSCFQEEAPQPHYQLR (UniProt Q16610) | 0.753 | 1.07
10 | FBXO5_Q9UKT4_95_LSCIGSPIVSPR (UniProt Q9UKT4) | -0.176 | -0.434
11 | FER_P16591-3_26_TCALMFSSEPSTSEVHRDQER (UniProt P16591) | 0.177 | -0.0627
12 | ESCO2_Q56NI9_389_HFGATVCK (UniProt Q56NI9) | 0.0621 | 0.116
13 | EGLN1_Q9GZT9_42_SSFYCCK (UniProt Q9GZT9) | -0.0734 | -0.316
14 | FAHD1_Q6P587_112_DVQDECK (UniProt Q6P587) | -0.0678 | 0.0636
15 | DOP1B_Q9Y3R5_2199_WAFIPEVDTEGPAFLSDVEENHQECKPHTVR (UniProt Q9Y3R5) | -0.308 | -0.13
16 | DOK3_Q7L591_133_LADCVSVLPADGESCPR (UniProt Q7L591) | 0.185 | -0.0799
17 | DPF2_Q92785_53_LPFLDSQTGVAQSNCYIWMEK (UniProt Q92785) | 0.202 | 0.23
18 | DOCK7_Q96N67_1710_SNHAEAAQCLVHSAALVAEYLSMLEDRK (UniProt Q96N67) | -0.222 | 0.118
19 | EIF3B_P55884_515_NLFNVVDCK (UniProt P55884) | 0.059 | 0.139
20 | EPB41L1_Q9H4G0_111_VTLLDASEYECEVEK (UniProt Q9H4G0) | -0.0494 | -0.235
21 | EIF2B4_Q9UI10_266_LKPYMSFLTQCRPLSASMHNAIK (UniProt Q9UI10) | -0.0787 | 0.0593
